# Test results taken from the supplement of paper PMC9446081.
# Among all 39,000 compounds or so, about 220 (0.56%) showed activity. Some of the results follow.
# Test system: Escherichia coli K-12 BW25113
# Test: relative growth (OD600 normalised to plate interquartile mean) (fraction); higher = less growth inhibition, active = 0.2 or less
# Conditions: 50 µM; LB; incubation time: overnight (16-24 h)
# 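Also: static incubation at 37 °C against the wild-type strain, values averaged over two biological replicates.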
row,SMILES,relative growth
1,Cc1noc(C)c1NC(=O)Nc1ccc2c(c1)C(=O)N([C@@H](C)CO)C[C@@H](C)[C@H](CN(C)S(=O)(=O)c1ccc(F)cc1)OCCCC[C@@H](C)O2,inactive: 1.02
2,Nc1ncn([C@H]2C[C@H](OP(=O)(O)OC[C@H]3O[C@@H](n4cnc5c(=O)nc(N)[nH]c54)C[C@@H]3O)[C@@H](CO)O2)c(=O)n1,inactive: 0.967
3,COc1ccc(NC(=O)N(C)C[C@H]2Oc3ccc(NC(=O)CCN4CCOCC4)cc3C(=O)N([C@@H](C)CO)C[C@@H]2C)cc1,inactive: 0.992
4,COc1ccc(S(=O)(=O)N(C)C[C@H]2OCCCC[C@H](C)Oc3ccc(NC(=O)C4CCCCC4)cc3C(=O)N([C@@H](C)CO)C[C@H]2C)cc1,inactive: 0.844
5,CC(C)C#Cc1ccc2c(c1)O[C@H](CN(C)S(=O)(=O)c1cn(C)cn1)[C@@H](C)CN([C@@H](C)CO)S2(=O)=O,inactive: 0.981
6,O=c1c(-c2ccc(O)cc2)coc2cc(O[C@@H]3O[C@H](CO)[C@@H](O)[C@H](O)[C@H]3O)ccc12,inactive: 0.992
7,C[C@@H]1CN([C@H](C)CO)S(=O)(=O)c2ccc(-c3cncnc3)cc2O[C@@H]1CN(C)C(=O)C1CCCCC1,inactive: 1.03
8,C[C@@H]1CN([C@H](C)CO)C(=O)c2cc(NC(=O)Nc3ccc(C(F)(F)F)cc3)ccc2O[C@H]1CN(C)C(=O)Nc1ccc2c(c1)OCO2,inactive: 1
9,C[C@@H]1CN([C@@H](C)CO)C(=O)c2cccc(NS(=O)(=O)c3ccc(F)cc3)c2O[C@@H]1CN(C)S(=O)(=O)c1ccccc1,inactive: 1.01
10,C[C@H]1CN([C@@H](C)CO)C(=O)c2cc(NC(=O)Cn3cnnn3)ccc2O[C@H]1CN(C)C(=O)NC1CCCCC1,inactive: 0.995
11,COc1ccc(S(=O)(=O)N(C)C[C@H]2Oc3ccc(NC(=O)CCCN(C)C)cc3C(=O)N([C@@H](C)CO)C[C@H]2C)cc1,inactive: 0.995
12,CN1C(=O)c2cc(NC(=O)Cc3cccs3)ccc2OC[C@@H]2O[C@H](CC(=O)NCCc3ccncc3)CC[C@H]21,inactive: 1.02
13,CS(=O)(=O)N1[C@H](C(=O)O)[C@@H](CO)[C@@H]2Cn3c(ccc(-c4ccc(F)cc4)c3=O)[C@@H]21,inactive: 1.03
14,O=C(C=Cc1ccccc1)c1ccc(OC2OC(CO)C(O)C(O)C2O)cc1O (stereo unspecified),inactive: 0.945
15,C[N+](C)(C)CCCC[C@@H]1NC(=O)[C@H]2C[C@@H](C(=O)NCc3ccc(F)cc3)[C@@H](c3cccc(OCCO)c3)N2C1=O,inactive: 1
16,COc1ccc(CN(C)C[C@H]2OCCCC[C@@H](C)Oc3ccc(NS(=O)(=O)c4cccs4)cc3C(=O)N([C@H](C)CO)C[C@H]2C)cc1,inactive: 0.992
17,COc1cccc(C#Cc2cnc3c(c2)C(=O)N([C@@H](C)CO)C[C@H](C)[C@@H](CN(C)C(=O)C2CCC2)O3)c1,inactive: 1.02
18,CC(C)C[C@@H](C(=O)N[C@@H](Cc1ccc(OCc2ccccc2)cc1)C(=O)NC(C)(C)C)N(C)Cc1ccc(C(C)(C)C)cc1,inactive: 0.997

row,SMILES,relative growth
1,C[C@H]1CN([C@@H](C)CO)C(=O)c2cc(NC(=O)C3CC3)ccc2O[C@@H]1CN(C)Cc1ccc(C(=O)O)cc1,inactive: 1.01
2,Cc1cc(C(=O)Nc2cccc3c2O[C@@H](CN(C)Cc2ccc4c(c2)OCO4)[C@H](C)CN([C@H](C)CO)C3=O)n(C)n1,inactive: 0.993
3,COc1ccc(NC(=O)N(C)C[C@H]2Oc3ccc(NC(=O)CCCCCC(=O)Nc4ccccc4N)cc3C(=O)N([C@H](C)CO)C[C@@H]2C)cc1,inactive: 0.984
4,C[C@@H]1CCCCO[C@H](CN(C)C(=O)CCC(F)(F)F)[C@@H](C)CN([C@H](C)CO)C(=O)c2cc(NC(=O)NC3CCCCC3)ccc2O1,inactive: 0.92
5,O=C(C[C@H]1CC[C@H]2[C@@H](COC[C@H](O)CN2C(=O)Nc2cc(Cl)cc(Cl)c2)O1)N1CCOCC1,inactive: 0.963
6,COCC#Cc1ccc2c(c1)O[C@@H](CN(C)C(=O)Nc1ccc(OC)cc1)[C@H](C)CN([C@@H](C)CO)S2(=O)=O,inactive: 1
7,CO[C@@H]1CN(C)C(=O)c2cc(NC(=O)c3cc(C)on3)ccc2OC[C@@H](C)N(S(=O)(=O)c2ccccc2)C[C@H]1C,inactive: 0.962
8,C[C@H]1CN([C@@H](C)CO)C(=O)Cc2cc(NC(=O)CCCN(C)C)ccc2O[C@@H]1CN(C)S(C)(=O)=O,inactive: 0.984
9,C[C@H]1CN([C@@H](C)CO)S(=O)(=O)c2ccc(Br)cc2O[C@@H]1CN(C)S(=O)(=O)c1ccccc1,inactive: 0.857
10,CC(=O)NCCCC[C@@H]1NC(=O)[C@H]2C[C@@H](C(=O)NCCCC[N+](C)(C)C)[C@@H](c3cccc(OCCO)c3)N2C1=O,inactive: 0.996
11,C=CCC[C@@H](Cc1ccc(F)cc1)C(=O)OC[C@@H](NC(=O)[C@H](CC=C)CC(=O)N(CCO)Cc1ccccc1)C(C)(C)C,inactive: 1.06
12,C[C@@H]1CN([C@H](C)CO)C(=O)c2cc(NS(=O)(=O)c3ccccc3)ccc2O[C@H]1CN(C)S(C)(=O)=O,inactive: 0.99
13,COc1cccc(S(=O)(=O)N2C[C@@H](O)COC[C@H]3O[C@H](CC(=O)N4CCOCC4)CC[C@@H]32)c1,inactive: 1
14,C[C@@H]1CN([C@H](C)CO)C(=O)c2cccc(NC(=O)Nc3cccc4ccccc34)c2O[C@@H]1CN(C)S(=O)(=O)c1ccc(Cl)cc1,inactive: 1.01
15,O=C(Nc1ccc(-c2nc3ccc(NC(=O)c4ccc(Cl)cc4)cc3[nH]2)cc1)c1ccc(Cl)cc1,inactive: 1.04
16,C[C@@H]1CCCCO[C@H](CN(C)Cc2ccncc2)[C@H](C)CN([C@@H](C)CO)C(=O)c2cc(NC(=O)CCC(F)(F)F)ccc2O1,inactive: 1
17,COc1ccc(S(=O)(=O)N(C)C[C@@H]2Oc3ccc(NS(=O)(=O)c4ccc(F)cc4)cc3CC(=O)N([C@@H](C)CO)C[C@@H]2C)cc1,inactive: 1.01
18,NC[C@H]1O[C@H](O[C@H]2[C@@H](O[C@@H]3O[C@H](CO)[C@@H](O)[C@H]3O)[C@@H](O)[C@H](N)C[C@@H]2N)[C@H](N)[C@@H](O)[C@@H]1O,inactive: 0.981
